# Measured values from PubChem BioAssay AID1454 (National Center for Advancing Translational Sciences (NCATS), 2008).
# In all, about 130,000 compounds went through this assay and about 550 (0.42%) were called active. The inconclusive results got no clear call from the source; some entries with a clear call stand among them for comparison. The call rests on the fitted dose curve; in most records, active means well fitted inhibition curve with a large enough effect; inconclusive means small, poorly fitted or top-dose-only effect, or effect the other way; inactive means flat fitted curve, though single readings scatter. No potency is given beside an inconclusive call; the fits are too rough.
# Experiment: qHTS Assay for Inhibitors of the ERK Signaling Pathway using a Homogeneous Screening Assay; Stimulation with EGF; further: nearly all actives have a fitted effect of over 55% in size;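 on activity change, negative = inhibition: plate controls were stimulated vehicle wells for no effect and unstimulated vehicle basal for full effect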
# Details: HEK293-V1b, EGF-stimulated phospho-ERK AlphaScreen; activity change, negative = inhibition: at the top concentration
# Outline: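 Concentration-response of compounds against EGF-driven ERK phosphorylation in V1b-expressing HEK293 cells; 30 min preincubation, 5 min EGF, AlphaScreen detection; Normalized to DMSO basal and 25 nM EGF.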
# Potency means the concentration at half of the fitted maximal effect; tags describe the fitted curve by direction and shape.
Structure (SMILES),Potency,"activity change, negative = inhibition"
CC(NC(=O)CC(c1ccccc1)c1cc(Cl)ccc1O)c1ccccc1 (stereo not drawn),"inconclusive [inhibitor, single point]",–
CCC(=O)NC(c1ccc(OC)cc1)c1cc(Cl)c2cccnc2c1O (stereo not drawn),–,inactive: 1%
O=C(/C=C/c1ccc2c(c1)OCCCO2)c1ccc2ccccc2c1O,"inconclusive [inhibitor, partial curve]",–
COc1ccc(/C=C/C(=O)NC(=S)N2CCSCC2)cc1,–,inactive: 0.389%
O=[N+]([O-])c1cc(Cl)cc(/C=N/NC(=S)Nc2ccc(S(=O)(=O)N3CCOCC3)cc2)c1O,–,inactive: 13.2% [at 57.5 µM]
CSc1ccccc1C(=O)NCCOc1cccc(C)c1,–,inactive: -3.42%
COc1ccc(C2N(c3ccc4c(c3)OCCO4)C(=O)C2(F)F)cc1OC (stereo not drawn),"inconclusive [inhibitor, single point]",–
COc1cc(/C=N/N=C2/C(=O)Nc3ccccc32)ccc1O,"inconclusive [inhibitor, single point]",–
CCOC(=O)c1c(-c2ccc(Cl)cc2)csc1NC(=O)CNCc1ccco1,–,inactive: -0.638% [at 57.5 µM]
O=C(CN1CCSC1=NCc1ccccc1)c1ccc(Cl)cc1,"inconclusive [activator, full curve, poor fit]",–
CCOC(=O)c1c(CC(C)C)csc1N,"inconclusive [inhibitor, single point]",–
O=[N+]([O-])c1cc(-c2ncccn2)c([N+](=O)[O-])s1,–,inactive: 4.25%
O=[N+]([O-])c1ccccc1NC1CCN(Cc2ccccc2)CC1,"inconclusive [inhibitor, single point]",–
CC(=O)Nc1sc(N/N=C/c2ccc(C)cc2)nc1-c1ccc(C)cc1,–,inactive: -1.58% [at 57.5 µM]
CCN(CC)S(=O)(=O)c1cccc(NC(=O)COC(=O)C2CC3C=CC2C3)c1 (stereo not drawn),"inconclusive [inhibitor, single point]",–
O=C(N/C(=C/c1cccc(Br)c1)c1nc(=S)[nH][nH]1)c1ccccc1,"inconclusive [inhibitor, single point]",–
COc1ccccc1C/C(N)=N/OC(=O)COc1cccc(C)c1C,"inconclusive [activator, single point]",–
CCOC(=O)CCCc1ccc(/C(C)=N/NC(N)=S)cc1,"inconclusive [inhibitor, partial curve]",–
COc1ccc(OC)c2c1C(=O)C(Cl)=C(Cl)C2=O,active: 28.2 µM,–
COc1ccc(C2(C(=O)Nc3ccc(OC)cc3OC)CCCC2)cc1,"inconclusive [inhibitor, single point]",–
COc1cccc(-c2nc(-c3ccc4c(c3)NC(=O)CO4)cs2)c1,"inconclusive [inhibitor, single point]",–
O=C1c2cccc3cccc(c23)C(=O)N1CCN1CCN(CC(O)COCc2ccc(Cl)cc2)CC1 (stereo not drawn),active: 31.6 µM,–
O=C(CSc1nnc(C2COc3ccccc3O2)o1)N1CCCC1 (stereo not drawn),"inconclusive [inhibitor, single point]",–

Structure (SMILES),Potency,"activity change, negative = inhibition"
Cc1ccc(NC(=O)c2ccc(N3CCOCC3)c([N+](=O)[O-])c2)cc1S(=O)(=O)N1CCOCC1,"inconclusive [inhibitor, single point]",–
COc1ccc(C(CCN2CCCC2)c2c(O)cc(OC)cc2OC)cc1 (stereo not drawn),"inconclusive [inhibitor, single point]",–
Cc1ccc2nc(N(CCCN(C)C)C(=O)c3ccc4c(c3)CCCC4)sc2c1,"inconclusive [inhibitor, single point]",–
CN(C)/C=C1\SC(=S)N(c2ccc(Br)cc2)C1=O,"inconclusive [inhibitor, partial curve, poor fit]",–
CCN(C(=O)c1cc2c(C)nc3ccccc3c2o1)c1cc(Cl)ccc1OC,"inconclusive [inhibitor, single point]",–
Cc1ccc(NC(=O)Nc2nnc(-c3ccncc3)s2)cc1C,–,inactive: -0.614%
CC(=O)Nc1ccc(Nc2nc(C)c([N+](=O)[O-])c(Nc3ccccc3)n2)cc1,active: 31.6 µM,–
C#CCN(C)CC/C=C1\c2ccccc2CSc2ccccc21,"inconclusive [inhibitor, single point]",–
Fc1ccc(OCCOCCOc2cccc3[nH]ccc23)cc1,"inconclusive [inhibitor, single point]",–
CCOc1ccc(/C=C/C(=O)Nc2cccc(C(C)=O)c2)cc1,"inconclusive [inhibitor, single point]",–
CCOc1nc(N2CCOCC2)nc(N2CCOCC2)n1,"inconclusive [inhibitor, single point]",–
CC(=O)Nc1ccc(NC2=C(Cl)C(=O)c3ccccc3C2=O)cc1,–,inactive: 22%
COc1ccccc1C(=O)C1CCCN(C(=O)CCn2cnnn2)C1 (stereo not drawn),"inconclusive [inhibitor, single point]",–
COc1ccccc1C(=O)C1CCCN(C(=O)CCc2ccccn2)C1 (stereo not drawn),"inconclusive [inhibitor, single point]",–
Brc1ccc(-c2csc(N/N=C/c3ccco3)n2)cc1,"inconclusive [inhibitor, single point]",–
CCC(C)C(=O)Nn1c(C2CC2)nc2cc(OC)c(OC)cc2c1=O (stereo not drawn),"inconclusive [inhibitor, single point]",–
Cn1cc(C2=C(c3cn(CCCSC(=N)N)c4ccccc34)C(=O)NC2=O)c2ccccc21,"inconclusive [inhibitor, single point]",–
Cc1cnc(N)c2c(=O)oc3ccccc3c12,"inconclusive [inhibitor, single point]",–
Cc1ccc(/C=C2\SC(=S)N(c3cccnc3)C2=O)o1,"inconclusive [inhibitor, single point]",–
COc1ccccc1Nc1c([N+](=O)[O-])cc(C)cc1[N+](=O)[O-],"inconclusive [inhibitor, full curve]",–
Cc1ccccc1OCCn1cnc2cc([N+](=O)[O-])ccc2c1=O,"inconclusive [inhibitor, single point]",–
COc1ccc(-c2csc(/C(C#N)=C\c3ccc(O)c([N+](=O)[O-])c3)n2)cc1OC,"inconclusive [inhibitor, single point]",–
COc1cc2ncnc(NCc3ccco3)c2cc1OC,active: 22.4 µM,–

Structure (SMILES),Potency,"activity change, negative = inhibition"
COc1ccc(C(CCNCc2ccc(F)cc2)c2ccc(F)cc2)cc1 (stereo not drawn),"inconclusive [inhibitor, single point]",–
CCCCC(=O)NC(=S)Nc1ccccc1N1CCCCC1,–,inactive: 4.64%
COc1cc2c(cc1OC)Cc1cc(OC)c(OC)cc1Cc1cc(OC)c(OC)cc1C2,–,inactive: -2.13%
COc1ccc(C(=O)N2CCOCC2)cc1S(=O)(=O)N1CCCc2ccccc21,"inconclusive [activator, partial curve, poor fit]",–
COC(=O)c1cnc(Nc2ccc(Cl)cc2)c([N+](=O)[O-])c1,"inconclusive [inhibitor, partial curve]",–
Cc1[nH]c2ccccc2c1C(C#N)(C#N)C1C(=O)c2ccccc2C1=O,"inconclusive [inhibitor, partial curve, poor fit]",–
COc1ccc2cc1Oc1ccc(cc1)CC1c3c(cc(OC)c4c3Oc3cc5c(cc3O4)CCNC5C2)CCN1C (stereo not drawn),"inconclusive [inhibitor, single point]",–
CC1(C)C(=O)N(CCN2CCC(C(=O)c3ccc(F)cc3)CC2)c2ccccc21,"inconclusive [inhibitor, single point]",–
CCc1ccc(NC(=O)c2ccc3c(=O)n4c(nc3c2)CCCCC4)cc1,"inconclusive [inhibitor, single point]",–
CCC(C)(C)c1ccc(OCCCC[n+]2ccccc2)c(C(C)(C)CC)c1,"inconclusive [inhibitor, single point]",–
CCn1c(=NC(=O)c2cccc(N3C(=O)CCC3=O)c2)sc2c(C)ccc(OC)c21,"inconclusive [inhibitor, single point]",–
COc1ccc(-c2nc3c(-c4ccc(Cl)cc4)cnn3cc2C)cc1F,"inconclusive [inhibitor, single point]",–
Cc1ccc(F)cc1NC(=O)N1CCN(c2ccnc3cc(Cl)ccc23)CC1,"inconclusive [inhibitor, single point]",–
N#CCCn1cc(/C=N/N=C2\NC(=O)C(CC(=O)O)S2)c(-c2ccc(F)cc2)n1 (stereo not drawn),–,inactive: 7.6% [at 57.5 µM]
CCN(CC)CC1CCCCN1CC(=O)N1c2ccccc2C(=O)Nc2cccnc21 (stereo not drawn),"inconclusive [inhibitor, single point]",–
Cc1[nH]c2ccc(F)cc2c1CCN(Cc1ccncc1)C(=S)Nc1ccc(F)cc1,–,inactive: 5.65%
COc1ccc(C2=NOC(COc3ccc4c(C)cc(=O)oc4c3)C2)c(OC)c1 (stereo not drawn),"inconclusive [inhibitor, single point]",–
CCCN(CC1CC1)C(=O)COC(=O)c1ccc2c(c1)C(=O)N(c1ccc(OCC)cc1)C2=O,"inconclusive [activator, full curve, poor fit]",–
O=C(/C=N/O)NCCCN1CCOCC1,"inconclusive [activator, partial curve]",–
O=C(Cc1ccc(F)cc1)N1CCN=C1SCc1cccc([N+](=O)[O-])c1,–,inactive: -1.53%
CCn1c(COc2cccc3cccnc23)nnc1SCC(=O)OC,"inconclusive [activator, full curve]",–
Nc1nccc(/C=C/c2c(F)cccc2Cl)n1,–,inactive: -6.41%
